The entries are a selection whose mix differs from that of the whole data set. The list includes weakly bound sequences.
Experiments:
Assay in all cases: protein-binding microarray (PBM)
Conditions in all cases: PBM: ~300 nM protein, 6 mM HEPES pH 7.8, 80 mM KCl, 0.5 mM EDTA, 0.5 mM EGTA, 6% glycerol, 35 ng/ul poly-dIdC, 1% milk, 1 h, room temperature; Ap Aiptasia and Nv Nematostella (sea anemones) / Co Capsaspora / Aq Amphimedon (sponge) / Dm Drosophila / Hu human; RHD is the Rel homology domain; high values mean tight binding; most listed sequences are background and not binding sites; double strand, one strand shown
[1] = molecular target: T1, GST-Ap-NF-kB RHD (UniProt A0A913YAJ5)
T1 sequence: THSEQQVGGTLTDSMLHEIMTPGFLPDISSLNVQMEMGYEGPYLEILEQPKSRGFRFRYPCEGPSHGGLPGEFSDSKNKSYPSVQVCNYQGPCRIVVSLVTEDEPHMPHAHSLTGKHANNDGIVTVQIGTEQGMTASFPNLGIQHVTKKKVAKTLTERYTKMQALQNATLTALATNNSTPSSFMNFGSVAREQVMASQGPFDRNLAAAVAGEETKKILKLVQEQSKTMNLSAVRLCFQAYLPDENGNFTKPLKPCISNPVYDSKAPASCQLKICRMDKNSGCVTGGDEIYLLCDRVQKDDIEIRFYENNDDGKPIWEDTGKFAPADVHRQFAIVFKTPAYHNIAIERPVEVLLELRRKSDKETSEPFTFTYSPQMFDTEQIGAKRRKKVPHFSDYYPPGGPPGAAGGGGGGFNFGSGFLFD

[2] = molecular target: T2, GST-Nv-NF-kB (Cys allele) (UniProt E5G601)
T2 sequence: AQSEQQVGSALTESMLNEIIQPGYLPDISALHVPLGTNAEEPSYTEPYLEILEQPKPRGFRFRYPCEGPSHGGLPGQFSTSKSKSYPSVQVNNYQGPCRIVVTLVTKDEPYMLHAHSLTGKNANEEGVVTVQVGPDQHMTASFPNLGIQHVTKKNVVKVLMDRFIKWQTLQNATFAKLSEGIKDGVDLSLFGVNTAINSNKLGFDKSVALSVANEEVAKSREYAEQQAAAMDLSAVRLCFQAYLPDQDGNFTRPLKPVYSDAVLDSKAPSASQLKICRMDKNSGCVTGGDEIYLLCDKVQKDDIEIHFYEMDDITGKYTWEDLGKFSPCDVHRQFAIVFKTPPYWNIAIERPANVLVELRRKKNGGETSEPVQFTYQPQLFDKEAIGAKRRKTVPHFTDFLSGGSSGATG

[3] = molecular target: T3, GST-Co-NF-kB (UniProt F1ARL5)
T3 sequence: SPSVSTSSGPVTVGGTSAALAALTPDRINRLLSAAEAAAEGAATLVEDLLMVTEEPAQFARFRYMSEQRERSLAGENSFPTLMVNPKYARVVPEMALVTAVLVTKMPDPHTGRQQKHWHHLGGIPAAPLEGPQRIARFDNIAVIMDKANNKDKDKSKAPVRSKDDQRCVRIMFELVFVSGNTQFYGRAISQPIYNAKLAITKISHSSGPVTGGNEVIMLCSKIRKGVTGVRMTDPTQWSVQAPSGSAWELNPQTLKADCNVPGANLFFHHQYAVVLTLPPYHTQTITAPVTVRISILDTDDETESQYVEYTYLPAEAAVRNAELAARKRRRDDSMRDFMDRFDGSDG

[4] = molecular target: T4, GST-Dm-Relish (UniProt Q94527)
T4 sequence: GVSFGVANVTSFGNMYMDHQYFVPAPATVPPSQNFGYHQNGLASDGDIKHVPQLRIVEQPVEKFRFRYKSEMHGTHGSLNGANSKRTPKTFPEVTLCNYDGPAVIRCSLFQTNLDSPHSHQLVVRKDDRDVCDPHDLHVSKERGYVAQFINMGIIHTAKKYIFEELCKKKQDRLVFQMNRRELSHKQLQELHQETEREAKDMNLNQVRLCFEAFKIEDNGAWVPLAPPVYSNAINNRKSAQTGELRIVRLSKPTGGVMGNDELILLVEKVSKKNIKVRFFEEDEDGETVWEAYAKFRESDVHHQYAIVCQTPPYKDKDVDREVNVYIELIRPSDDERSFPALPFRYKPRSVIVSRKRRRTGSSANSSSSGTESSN

[5] = molecular target: T5, GST-Aq-NF-kB (UniProt A9Y5G7)
T5 sequence: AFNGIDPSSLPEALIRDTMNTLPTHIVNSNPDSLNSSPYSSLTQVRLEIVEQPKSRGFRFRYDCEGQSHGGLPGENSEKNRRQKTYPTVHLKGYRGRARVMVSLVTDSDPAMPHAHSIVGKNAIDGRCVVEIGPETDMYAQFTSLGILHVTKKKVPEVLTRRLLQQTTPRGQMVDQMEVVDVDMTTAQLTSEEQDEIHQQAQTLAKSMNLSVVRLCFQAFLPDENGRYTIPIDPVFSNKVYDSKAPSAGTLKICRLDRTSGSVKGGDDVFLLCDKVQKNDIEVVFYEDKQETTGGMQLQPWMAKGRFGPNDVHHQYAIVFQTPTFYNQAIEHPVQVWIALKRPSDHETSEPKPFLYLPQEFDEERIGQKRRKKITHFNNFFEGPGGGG

Sequence	binding signal [1] [z-score]	binding signal [2] [z-score]	binding signal [3] [z-score]	binding signal [4] [z-score]	binding signal [5] [z-score]
CCGATTAACATCAACCTGAGCGGTGATGTTAATCGGGTCTTGATTCGCTTGACGCTGCTG	0.242	0.215	0.823	0.769	0.0675
CCGATTAACATCAGTGCATCTCGTGATGTTAATCGGGTCTTGATTCGCTTGACGCTGCTG	-0.608	-0.396	-0.671	-0.318	-0.601
CCGATTAACATCAGAGAGACACTTGATGTTAATCGGGTCTTGATTCGCTTGACGCTGCTG	-0.862	-0.5	-0.636	-0.577	-0.488
CCGATTAACATCACAGAGTTTCCTGATGTTAATCGGGTCTTGATTCGCTTGACGCTGCTG	-0.451	-0.798	-0.121	0.0744	0.0672
CCGATTAACATCACAGACTCAGTTGATGTTAATCGGGTCTTGATTCGCTTGACGCTGCTG	-0.34	-0.0902	-0.498	-0.156	-0.573
CCGATTAACATCAATCACCAGGATGATGTTAATCGGGTCTTGATTCGCTTGACGCTGCTG	0.189	-0.18	-0.184	-0.0218	-0.463
CCGATTAACATCAAACTCCATCCTGATGTTAATCGGGTCTTGATTCGCTTGACGCTGCTG	-0.875	-0.551	0.0766	-0.364	-0.103
CCGATTAACATCACATGCTGCTGTGATGTTAATCGGGTCTTGATTCGCTTGACGCTGCTG	-0.659	0.208	-0.854	-0.101	-0.718
CCGATTAACATCAGAACTACTTCTGATGTTAATCGGGTCTTGATTCGCTTGACGCTGCTG	-0.822	-0.118	-0.459	-0.0419	-0.65
CCGATTAACATCAAAGTGGTCTTTGATGTTAATCGGGTCTTGATTCGCTTGACGCTGCTG	-0.979	0.12	-1.27	0.0268	-0.86
CCGATTAACATCAGCTGACTTCTTGATGTTAATCGGGTCTTGATTCGCTTGACGCTGCTG	-1	-0.729	-0.47	-1.2	-0.889
CCGATTAACATCACACTCAGTCCTGATGTTAATCGGGTCTTGATTCGCTTGACGCTGCTG	-0.0952	0.0587	0.353	0.665	-0.0207
CCGATTAACATCACAATGGAGAGTGATGTTAATCGGGTCTTGATTCGCTTGACGCTGCTG	-0.718	0.0811	0.706	0.343	-0.497
CCGATTAACATCAACATGTAGGATGATGTTAATCGGGTCTTGATTCGCTTGACGCTGCTG	-0.599	-0.23	0.241	-0.453	-0.454
CCGATTAACATCAAGCGAGTTCCTGATGTTAATCGGGTCTTGATTCGCTTGACGCTGCTG	-0.418	-0.511	0.224	-0.405	-0.424
CCGATTAACATCATCGAGACAAATGATGTTAATCGGGTCTTGATTCGCTTGACGCTGCTG	-0.263	-0.177	-0.666	-0.619	-0.59
CCGATTAACATCAGCATCAAGCATGATGTTAATCGGGTCTTGATTCGCTTGACGCTGCTG	-0.665	-0.361	-1.22	-0.574	-0.6
CCGATTAACATCATAGCCTGAGCTGATGTTAATCGGGTCTTGATTCGCTTGACGCTGCTG	-0.632	-0.865	-0.68	-0.795	-0.427
CCGATTAACATCACGTACCTCTTTGATGTTAATCGGGTCTTGATTCGCTTGACGCTGCTG	0.00484	0.15	0.323	0.393	-0.181
CCGATTAACATCATTGCTGAGAATGATGTTAATCGGGTCTTGATTCGCTTGACGCTGCTG	-0.423	-0.529	-0.125	-0.446	-0.561
CCGATTAACATCACTTAGATTAGTGATGTTAATCGGGTCTTGATTCGCTTGACGCTGCTG	-0.316	-0.457	-0.662	-0.0724	-0.469
CCGATTAACATCAAGGGTGTAAGTGATGTTAATCGGGTCTTGATTCGCTTGACGCTGCTG	0.62	0.478	0.742	0.336	0.333
CCGATTAACATCAAAGGTTGCGTTGATGTTAATCGGGTCTTGATTCGCTTGACGCTGCTG	0.0555	-0.341	-0.602	-0.664	-0.614
CCGATTAACATCACGTATAATGATGATGTTAATCGGGTCTTGATTCGCTTGACGCTGCTG	-0.72	-0.244	0.489	0.269	0.0264
CCGATTAACATCAGTCCACACCATGATGTTAATCGGGTCTTGATTCGCTTGACGCTGCTG	-0.549	-0.424	-0.218	-0.137	-0.417
CCGATTAACATCAAGAACTAATTTGATGTTAATCGGGTCTTGATTCGCTTGACGCTGCTG	-0.724	0.397	-0.441	0.19	-0.361
CCGATTAACATCAGATCACACACTGATGTTAATCGGGTCTTGATTCGCTTGACGCTGCTG	-0.441	-0.0743	0.0405	-0.317	-0.353
